We go through 26 molecules from the antibiotic and cytotoxicity screens of Wong et al. (2023).

One assay relates to HSkMC. Nature of the assay: cytotoxicity call (relative viability < 0.9). The conditions noted are these: 10 µM.
A further assay has as its system HepG2. Nature of the assay: cytotoxicity call (relative viability < 0.9). As to conditions: 10 µM.
In another assay the test system is S. aureus RN4220. Nature of the assay: growth inhibition call (relative growth <= 0.2). As to conditions: 50 µM.

The structures appear in SMILES notation. This is one part of the list.

For `Nc1nc2ncc(=O)[nH]c2c(=O)[nH]1`, the cytotoxicity call with HSkMC and with HepG2 was “inactive” each time. Also, the growth inhibition call with S. aureus RN4220 was “inactive”.
On to `C[C@@H]1CCCCO[C@H](CN(C)Cc2ccc3c(c2)OCO3)[C@H](C)CN([C@@H](C)CO)C(=O)c2cc(NS(=O)(=O)c3ccccc3)ccc2O1`, for which, in the assay with HSkMC, the cytotoxicity call was “inactive”. Further, the cytotoxicity call in the assay on HepG2 is “active”. Besides, the growth inhibition call in the assay with S. aureus RN4220 is “inactive”.
As for `Nc1ncnc(Cl)c1N`, the cytotoxicity call in the assay with HSkMC and with HepG2 was “inactive” throughout. In addition, the growth inhibition call with S. aureus RN4220 is “inactive”.
As for `NCC1(c2cccs2)CCCC1`, the cytotoxicity call with HSkMC and in the assay with HepG2 was “inactive” throughout. The growth inhibition call with S. aureus RN4220 is “inactive”.
Take `CC(C)CC#Cc1ccc2c(c1)O[C@H](CN(C)C(=O)c1cnccn1)[C@H](C)CN([C@H](C)CO)S2(=O)=O`: the cytotoxicity call in the assay on HSkMC and in the assay with HepG2 was “inactive” throughout. Besides, the growth inhibition call in the assay with S. aureus RN4220 was “inactive”.
For `COc1ccccc1S(=O)(=O)N(C)C[C@@H]1OCc2cn(nn2)CCCC(=O)N([C@@H](C)CO)C[C@H]1C`, the cytotoxicity call in the assay with HSkMC and in the assay on HepG2 was “inactive” each time. Besides, the growth inhibition call in the assay with S. aureus RN4220 was “inactive”.
`C[C@H]1CN([C@@H](C)CO)C(=O)Cc2cc(NC(=O)Cc3ccccc3)ccc2O[C@@H]1CN(C)S(=O)(=O)c1ccc(F)cc1`: the cytotoxicity call with HSkMC and in the assay with HepG2 was “inactive” throughout. Also, the growth inhibition call with S. aureus RN4220 was “inactive”.
`CC(=O)O[C@H]1C[C@@H](OC(C)=O)C(C)(C)[C@@H]2C[C@@H](OC(C)=O)[C@@]3(C)C4=CC(=O)O[C@@H](c5ccoc5)[C@]4(C)CC[C@@H]3[C@@]12C`: the cytotoxicity call with HSkMC and in the assay on HepG2 was “inactive” in each case. Moreover, the growth inhibition call with S. aureus RN4220 is “inactive”.
With `COc1ccc(S(=O)(=O)N(C)C[C@H]2OCc3cn(nn3)CCCC(=O)N([C@@H](C)CO)C[C@H]2C)cc1`, the cytotoxicity call in the assay on HSkMC and in the assay with HepG2 was “inactive” throughout. For the same molecule, in the assay on S. aureus RN4220, the growth inhibition call is “inactive”.
As for `C=C1[C@@H]2[C@H]3OC(=O)[C@@H](C)[C@@H]3[C@@H](O[C@@H]3O[C@H](CO)[C@@H](O)[C@H](O)[C@H]3O)CC(=C)[C@@H]2C[C@@H]1O`, the cytotoxicity call with HSkMC and in the assay on HepG2 was “inactive” each time. For the same molecule, in the assay on S. aureus RN4220, the growth inhibition call is “inactive”.
Turning to `O=C(NCCN1CCOCC1)[C@@]1(Cc2ccccc2)N=C(c2ccc(OCCCO)cc2)O[C@H]1c1ccccc1`, the cytotoxicity call with HSkMC and with HepG2 was “inactive” in each case. Besides, in the assay with S. aureus RN4220, the growth inhibition call is “inactive”.
In the case of `COc1cccc(-c2cn(CC[C@@H]3CC[C@H](NS(=O)(=O)c4ccccc4Cl)[C@H](CO)O3)nn2)c1`, the cytotoxicity call with HSkMC and with HepG2 was “inactive” throughout. Besides, the growth inhibition call in the assay on S. aureus RN4220 was “inactive”.
On to `O=C1O[C@@H](c2ccccc2)[C@@H](c2ccccc2)N2[C@@H](c3ccc(O)cc3)[C@]3(C(=O)Nc4ccc(C#CC5(O)CCCCCC5)cc43)[C@@H](C(=O)N3CCN(c4ncccn4)CC3)[C@H]12`, for which the cytotoxicity call with HSkMC and with HepG2 was “inactive” throughout. Moreover, in the assay with S. aureus RN4220, the growth inhibition call was “inactive”.
For `C[C@@H]1CN([C@H](C)CO)C(=O)c2cc(C#Cc3cccc(F)c3)cnc2O[C@H]1CN(C)Cc1ccccn1`, the cytotoxicity call with HSkMC and in the assay with HepG2 was “inactive” throughout. In the assay on S. aureus RN4220, the growth inhibition call is “inactive”.
For the molecule `COc1cccc(C#Cc2cnc3c(c2)C(=O)N([C@@H](C)CO)C[C@H](C)[C@H](CN(C)C(=O)C2CCOCC2)O3)c1`, the cytotoxicity call with HSkMC and in the assay with HepG2 was “inactive” throughout. Moreover, the growth inhibition call with S. aureus RN4220 was “inactive”.
`C[C@@H]1CN([C@@H](C)CO)C(=O)c2cc(NS(=O)(=O)c3ccc(F)cc3)ccc2O[C@H]1CN(C)C(=O)Nc1ccc(C(F)(F)F)cc1`: the cytotoxicity call in the assay with HSkMC and with HepG2 was “inactive” each time. For the same molecule, the growth inhibition call in the assay on S. aureus RN4220 was “inactive”.
For `C[C@H](CO)N1C[C@H](C)[C@@H](CN(C)Cc2ccc3c(c2)OCO3)Oc2ccc(NC(=O)CCCN(C)C)cc2CC1=O`, the cytotoxicity call with HSkMC and with HepG2 was “inactive” in each case. Besides, the growth inhibition call with S. aureus RN4220 was “inactive”.
As to `CC(C)=CCCC(C)(O)C1CC=C(C)CC1` (stereo not drawn), the cytotoxicity call in the assay with HSkMC and in the assay on HepG2 was “active” in each case. Further, the growth inhibition call in the assay on S. aureus RN4220 was “inactive”.
As for `CC(C)NC(=O)Nc1ccc2c(c1)C(=O)N([C@@H](C)CO)C[C@@H](C)[C@@H](CN(C)C(=O)C1CCCCC1)OCCCC[C@H](C)O2`, the cytotoxicity call in the assay on HSkMC and in the assay on HepG2 was “inactive” throughout. Besides, the growth inhibition call with S. aureus RN4220 is “inactive”.
Consider `C[C@@H]1CN([C@H](C)CO)C(=O)c2cc(C#CCN(C)C)cnc2O[C@H]1CN(C)C(=O)CCN1CCCCC1`, for which the cytotoxicity call with HSkMC and in the assay on HepG2 was “inactive” throughout. For the same molecule, the growth inhibition call in the assay with S. aureus RN4220 was “inactive”.
On to `COc1ccc(CN(C)C[C@H]2Oc3ccc(NS(C)(=O)=O)cc3C(=O)N([C@H](C)CO)C[C@H]2C)cc1`, for which the cytotoxicity call in the assay with HSkMC and in the assay with HepG2 was “inactive” in each case. For the same molecule, in the assay on S. aureus RN4220, the growth inhibition call was “inactive”.
In the case of `COC1C(O)C(O)C(O)C(O)C1O` (stereo not drawn), the cytotoxicity call in the assay with HSkMC and in the assay on HepG2 was “inactive” throughout. Further, the growth inhibition call in the assay on S. aureus RN4220 was “inactive”.
Turning to `C[C@H]1CCCCO[C@H](CN(C)C(=O)Nc2ccccc2)[C@@H](C)CN([C@@H](C)CO)C(=O)c2cc(NS(=O)(=O)c3ccccc3)ccc2O1`, the cytotoxicity call with HSkMC and with HepG2 was “inactive” in each case. For the same molecule, the growth inhibition call with S. aureus RN4220 was “inactive”.
In the case of `C=c1ccccc1=C1NN=C(SCC(=O)OC)O1`, the cytotoxicity call in the assay with HSkMC and in the assay on HepG2 was “inactive” each time. Besides, in the assay with S. aureus RN4220, the growth inhibition call was “inactive”.
In the case of `C[C@@H]1CCCCO[C@@H](CN(C)C(=O)Nc2cccc3ccccc23)[C@@H](C)CN([C@H](C)CO)C(=O)c2cc(NS(=O)(=O)c3ccccc3)ccc2O1`, the cytotoxicity call with HSkMC and in the assay with HepG2 was “inactive” throughout. For the same molecule, in the assay on S. aureus RN4220, the growth inhibition call was “inactive”.
With `C=CC[C@@H](CC(=O)N[C@@H](CO)Cc1ccccc1)C(=O)N[C@@H](C)COC(=O)[C@@H](CC=C)CC(=O)OC(C)(C)C`, the cytotoxicity call in the assay on HSkMC (human skeletal muscle cells) and with HepG2 was “inactive” throughout. Also, the growth inhibition call in the assay on S. aureus RN4220 is “inactive”.
